# Measured values published in the supplement of paper PMC3334620.
# Whole data set: some 33,000 sequences, median “E-score (-0.5 to 0.5)” near -0.016, cut for the highest 2% near 0.32. Some of the results follow.
# Target: T1, Stp1 (UniProt B3LFK1)
# T1 sequence: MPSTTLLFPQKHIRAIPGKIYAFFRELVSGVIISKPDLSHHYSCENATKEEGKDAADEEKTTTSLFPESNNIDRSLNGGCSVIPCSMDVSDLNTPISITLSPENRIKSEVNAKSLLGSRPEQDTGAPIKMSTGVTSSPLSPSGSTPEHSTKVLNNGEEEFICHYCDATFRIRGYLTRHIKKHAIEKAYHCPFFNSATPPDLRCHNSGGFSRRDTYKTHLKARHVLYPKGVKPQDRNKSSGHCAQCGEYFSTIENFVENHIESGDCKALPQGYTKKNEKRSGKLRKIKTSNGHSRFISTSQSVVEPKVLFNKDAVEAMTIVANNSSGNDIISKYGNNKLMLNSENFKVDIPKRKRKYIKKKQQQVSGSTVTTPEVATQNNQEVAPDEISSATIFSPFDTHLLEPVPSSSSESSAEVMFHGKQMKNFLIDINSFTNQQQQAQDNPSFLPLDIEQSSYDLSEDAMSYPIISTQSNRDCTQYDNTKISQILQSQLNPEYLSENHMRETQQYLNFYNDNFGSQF
# Assay: PBM E-score (8-mer binding enrichment) (E-score (-0.5 to 0.5)); higher = stronger / more preferred TF binding; most listed sequences are background and not binding sites
# Details: protein concentration: 200 nM; construct: GST-full length
# Procedure, shortened: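 Universal all-10-mer Agilent arrays, double-stranded by primer extension on fresh or once-stripped slides, were probed with about 100-200 nM GST-tagged yeast transcription factors made by PURExpress. Fluorescent anti-GST detected bound protein, and masliner normalised the scans. E-scores from the Universal PBM Analysis Suite were given to each ungapped eight-base word pooled with its reverse complement.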
row,Sequence,PBM E-score
1,ACTAGGAT,0.0396
2,AGCTAGGA,-0.0975
3,AACAGACT,-0.177
4,AATCTGGG,-0.194
5,ATAAGCGG,0.0761
6,GCACCCAC,0.118
7,AAGGGGAA,-0.193
8,CACTCAGA,0.0169
9,AGCAGGAC,-0.138
10,GTGGATTA,-0.0115
11,GTGGCCGA,0.0201
12,AACGATCA,-0.169
13,AAACTGAG,-0.0369
14,CAGTTAGC,-0.086
15,ACTCGAGC,0.04
16,TAGGAGAA,-0.193
17,AAATCGGT,-0.183
18,AAACTCGT,0.0458
19,CCCTTCAA,0.0178
20,CCCCTGAC,-0.254
21,AGTATTTC,0.136
22,TATGTGGA,0.136
23,ATGACCGG,-0.275
24,GATTCTCC,-0.121
25,AACTCTAG,-0.278

row,Sequence,PBM E-score
1,AGATCCCT,-0.192
2,AGGTCGGC,-0.25
3,CAAGTACC,-0.184
4,ACGGAGTG,0.104
5,AGCGCCAT,0.148
6,AGCCGCTC,0.337
7,ATATGCGG,0.282
8,CTCCTCGC,-0.143
9,AAGGAGGT,-0.305
10,GGGACCCC,-0.32
11,ACCACACC,-0.0384
12,CTGCTAAC,-0.0238
13,ACCCGTGA,-0.0351
14,CACCTTCA,-0.13
15,AGCCGCTG,0.0781
16,CTGGTAAC,-0.21
17,CCTGTCGA,-0.0843
18,AGTTGCCA,0.154
19,ACCATCCC,-0.093
20,ACTCCAAA,-0.0837
21,CTTCCCTA,-0.23
22,TGCGAACA,0.0789
23,ATCGCTAG,0.0173
24,GGGGAAGA,-0.254
25,CACTGTGC,0.00331

row,Sequence,PBM E-score
1,CACAGGGG,-0.237
2,AATGACGG,0.0469
3,AAAATGAG,0.12
4,AATCGGGT,0.0191
5,ACAACACC,0.111
6,CGCCGGCG,0.312
7,CGCTAGAC,-0.229
8,CATTAAAG,0.141
9,CTTAAAAC,0.182
10,AATATCAG,0.0739
11,ACTATAGT,0.0121
12,GTTCGCAA,0.153
13,CTGCGGCC,0.214
14,CTGCGGGC,-0.0333
15,CCGATGTA,-0.231
16,CTTCTACC,-0.205
17,ATAGCCAC,0.0777
18,ACATAGGC,-0.152
19,AGACCGTC,-0.119
20,CCTCCGCG,0.0514
21,TATAGAAA,0.141
22,AAAGTACC,0.0191
23,GGCCCCCC,-0.329
24,GAAATAGA,0.121
25,GAAGTACC,0.0344

row,Sequence,PBM E-score
1,GTCTCGCA,-0.0571
2,CAGTCGTA,0.107
3,CGGGCGCA,-0.16
4,GATGAAAC,0.0664
5,AAAGTTTA,0.189
6,TAATTACA,0.041
7,CTGAAATA,0.0993
8,AACCTTCC,-0.0388
9,GCGTCACC,0.011
10,CAGAAACG,0.25
11,ATCGAAAA,0.0988
12,ATCCAAAA,0.115
13,GCTTCAGA,0.00419
14,CTCATGAG,0.183
15,GAACTAGC,-0.182
16,CCATAAGA,0.0932
17,AGTAACGC,0.192
18,AAACATGC,-0.0742
19,ATTAGCTG,0.0634
20,AGCGGGGC,0.0451
21,ACCATACG,0.164
22,AGCGAATG,-0.08
23,AAGGCCTG,-0.264
24,GGTTTACA,0.0843
25,CAGTAAAG,0.0751

row,Sequence,PBM E-score
1,CGCAGAAA,0.131
2,GGTAGTGA,-0.202
3,GGACGACA,0.135
4,AACGTTTC,5e-05
5,AACACTGT,-0.0574
6,AATGAGAG,-0.0729
7,CACCAGCG,-0.178
8,AACTTAAA,0.142
9,ATACTACA,0.0929
10,ATTGGCCC,-0.366
11,CCGCGGAC,0.12
12,CCGTAAAA,0.246
13,GGGTAAAA,0.138
14,AGCAGCCT,-0.0925
15,AAATTTCG,0.12
16,AGTCAGTG,0.00226
17,AGGAAACC,0.0356
18,ACACGGGG,0.235
19,GACGGAAA,0.0786
20,CTTGCCCA,-0.0628
21,CTCCTCTA,-0.321
22,AAAGCTAC,-0.0607
23,CACCAACG,-0.0306
24,CTCTTACC,0.201
25,TCGTCTCA,-0.154

row,Sequence,PBM E-score
1,CAGCAAAA,-0.0372
2,CCCCCGCG,-0.0598
3,GCATTCGA,-0.0305
4,AATATGCA,0.00405
5,AATGAGCT,-0.164
6,ATCGCAAC,-0.0994
7,GGAAGTCC,-0.166
8,GATGTAGC,-0.123
9,ATCAGACC,-0.0398
10,CAGTTGGA,0.0531
11,GACTATCA,-0.0382
12,ATCAAAAC,0.102
13,CGTCGATA,0.105
14,CTGATTCA,-0.0077
15,TCTCACAA,0.0365
16,AAAGGCTC,0.104
17,ACCTCTTA,0.128
18,GCCTCATA,0.243
19,ACGAGGGC,0.0192
20,AGTAATCC,-0.0894
21,AGGGCGAG,-0.12
22,ATGTTAAA,0.221
23,CATTGCCC,0.0291
24,ACGGATGG,0.14
25,GAAGAGTC,-0.219

row,Sequence,PBM E-score
1,CCCTGATA,-0.202
2,ACGATCTA,-0.1
3,CTGGACCC,-0.266
4,GATCGCAC,-0.0631
5,ACTCAAGC,-0.105
6,CGGTAAAG,0.0549
7,GACAGCAA,0.193
8,ACTGGTCG,-0.0623
9,CGACCACC,-0.106
10,ATAATAGA,0.035
11,GATGTTTA,-0.0105
12,CGTGCACG,0.221
13,CTACCACC,-0.296
14,GTGACCCA,-0.011
15,ATCCGCGG,0.13
16,CCACCACC,-0.144
17,AATTGAAT,0.0857
18,AGTGTTCG,-0.0382
19,AATAACGA,0.0307
20,CGATACCC,-0.161
21,CATACATA,0.193
22,AATCGAGT,-0.048
